Data reported in the supplement of paper PMC6206098.
± gives the uncertainty stated by the source. Shown are siRNA guide strands that differ only in the seed, positions 2 to 7.

Tests used:
H460 = assay: cell viability relative to lipid-only control; higher = less toxic; conditions: concentration: 10 nM; 96 h; Homo sapiens
M565 = assay: as above; conditions: concentration: 10 nM; 96 h; Mus musculus
HeyA8 = assay: as above; conditions: concentration: 10 nM; 96 h; Homo sapiens
3LL = assay: cell viability relative to siNT1 control; HeyA8 human ovarian and H460 human lung cancer; M565 mouse liver and 3LL mouse lung cancer; siNT1 is a non-toxic control siRNA; higher = less toxic; conditions: concentration: 10 nM; 96 h; Mus musculus
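Throughout, for cell viability relative to lipid-only control: reverse lipid transfection in 384-well plates, in triplicate, of duplexes on a non-toxic 19mer backbone with passenger strand 2′-O-methylated at positions 1 and 2, luminescence viability read-out.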
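Throughout, for cell viability relative to siNT1 control: Luminescence-based viability of cells reverse transfected in 384-well plates with lipid-complexed siRNAs built on a non-toxic 19mer backbone whose passenger strand carries 2′-O-methyl groups at positions 1 and 2, triplicates.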

| Sequence | cell viability (H460) [%] | cell viability (M565) [%] | cell viability (HeyA8) [%] | cell viability (3LL) [%] |
| --- | --- | --- | --- | --- |
| UACACCAACAUGUAAACCAAA | 63.6 ± 4.9 | 39.2 ± 4.3 | 67.5 ± 1.1 | 71.4 ± 13 |
| UGCCUAUACAUGUAAACCAAA | 58 ± 4.7 | 27.4 ± 9.7 | 59.9 ± 4.3 | 58 ± 8.4 |
| UGAGGCUACAUGUAAACCAAA | 26.8 ± 3.5 | 3.52 ± 1.1 | 10.9 ± 0.47 | 5.02 ± 1.1 |
| UACACAGACAUGUAAACCAAA | 55.9 ± 6.7 | 35.1 ± 4.3 | 62 ± 6.5 | 89 ± 15 |
| UUGCGGCACAUGUAAACCAAA | 35.4 ± 0.91 | 20.5 ± 2.8 | 35.7 ± 4.9 | 43.9 ± 1.8 |
| UUGCGCAACAUGUAAACCAAA | 97 ± 6.2 | 93.9 ± 17 | 88.5 ± 12 | 87.8 ± 1.9 |
| UGAAACAACAUGUAAACCAAA | 64 ± 5.2 | 68.7 ± 9.6 | 76.1 ± 3.5 | 70.9 ± 12 |
| UAUAGCUACAUGUAAACCAAA | 43.6 ± 3.8 | 49.5 ± 6.5 | 64.6 ± 2 | 68.9 ± 6.1 |
| UGGGGCGACAUGUAAACCAAA | 12.6 ± 3.1 | 17.4 ± 2.6 | 2.17 ± 0.062 | 15.3 ± 1.8 |
| UCAUACGACAUGUAAACCAAA | 36.8 ± 2.7 | 84 ± 17 | 91.5 ± 12 | 100 ± 14 |
| UAGGGUGACAUGUAAACCAAA | 61.5 ± 4.7 | 27.6 ± 5.9 | 64.82 ± 0.64 | 81.2 ± 13 |
| UGUUUCAACAUGUAAACCAAA | 50.9 ± 2.8 | 80.8 ± 5.7 | 26.5 ± 5.9 | 84.4 ± 5 |
| UGAGGGCACAUGUAAACCAAA | 13.4 ± 0.65 | 3.66 ± 0.6 | 3.07 ± 0.62 | 60.8 ± 8.9 |
| UCUUGUCACAUGUAAACCAAA | 60.2 ± 8.4 | 83.3 ± 14 | 75.8 ± 2.1 | 97.3 ± 14 |
| UGGCGCAACAUGUAAACCAAA | 37.5 ± 2.9 | 36.6 ± 7.1 | 9.72 ± 2.5 | 59.4 ± 8.3 |
| UAAUCCAACAUGUAAACCAAA | 74.2 ± 6.6 | 77.6 ± 3.7 | 92.5 ± 7.1 | 102 ± 8.5 |
| UGGCCAUACAUGUAAACCAAA | 54.2 ± 5.1 | 9.53 ± 8.5 | 26.4 ± 5.8 | 36 ± 9.3 |
| UACAUGCACAUGUAAACCAAA | 26 ± 2.4 | 19.6 ± 2.7 | 8.38 ± 0.88 | 34.3 ± 1.8 |
| UGAUGGGACAUGUAAACCAAA | 44.4 ± 1.8 | 29.1 ± 8 | 21.2 ± 0.81 | 19.7 ± 3 |
| UCUGCGCACAUGUAAACCAAA | 79.4 ± 3.8 | 44.4 ± 8 | 68.5 ± 2.8 | 69.6 ± 7.7 |

| Sequence | cell viability (H460) [%] | cell viability (M565) [%] | cell viability (HeyA8) [%] | cell viability (3LL) [%] |
| --- | --- | --- | --- | --- |
| UUAACAGACAUGUAAACCAAA | 91.1 ± 25 | 79.5 ± 3 | 91.9 ± 10 | 84.9 ± 5.4 |
| UGUUAGCACAUGUAAACCAAA | 28.2 ± 2.7 | 11.7 ± 4.6 | 14.7 ± 0.79 | 2.3 ± 0.59 |
| UAGAGGAACAUGUAAACCAAA | 80.8 ± 19 | 36.9 ± 3.7 | 69.4 ± 5.6 | 85.7 ± 9.2 |
| UCUGUGUACAUGUAAACCAAA | 48.6 ± 7 | 12.7 ± 4.9 | 62 ± 3.6 | 74.4 ± 12 |
| UUAAAUCACAUGUAAACCAAA | 61.7 ± 5.8 | 82.7 ± 4.3 | 71.8 ± 1.5 | 41.6 ± 4.5 |
| UGUCGGUACAUGUAAACCAAA | 46.4 ± 4.8 | 35.3 ± 6.6 | 64.9 ± 7.3 | 23.8 ± 3.9 |
| UAAAAUGACAUGUAAACCAAA | 80.7 ± 7.1 | 94.9 ± 17 | 97.1 ± 5.6 | 117 ± 7.9 |
| UGACGUGACAUGUAAACCAAA | 60 ± 14 | 20 ± 4.2 | 89.3 ± 2.2 | 65.8 ± 8.8 |
| UACUUAUACAUGUAAACCAAA | 55.5 ± 3.8 | 28.2 ± 1.4 | 42.2 ± 2.4 | 76.9 ± 6.6 |
| UACGAUCACAUGUAAACCAAA | 51.5 ± 3.4 | 72.1 ± 4.7 | 66 ± 4.9 | 86.1 ± 14 |
| UUUAUGCACAUGUAAACCAAA | 18.3 ± 2.7 | 29 ± 5.9 | 23.1 ± 3.7 | 24.9 ± 2.3 |
| UACACGUACAUGUAAACCAAA | 81.1 ± 12 | 34.6 ± 8.4 | 64.3 ± 4.8 | 70.8 ± 12 |
| UGGGGUAACAUGUAAACCAAA | 29.2 ± 3.7 | 23.5 ± 6.3 | 11.7 ± 1.2 | 38.2 ± 5.6 |
| UGAAUAUACAUGUAAACCAAA | 73.7 ± 26 | 54.5 ± 3.6 | 49.5 ± 4.6 | 106 ± 15 |
| UACGGGGACAUGUAAACCAAA | 53.7 ± 3.6 | 76.9 ± 14 | 49.3 ± 13 | 59.2 ± 2.1 |
| UACGCGAACAUGUAAACCAAA | 69.1 ± 18 | 74.4 ± 5.3 | 85.2 ± 10 | 91.5 ± 7.2 |
| UACGAGCACAUGUAAACCAAA | 97.094 ± 0.073 | 17.9 ± 1.6 | 72.5 ± 8.4 | 74.4 ± 8.6 |
| UCACAGGACAUGUAAACCAAA | 16.4 ± 2 | 38.1 ± 5.7 | 78.1 ± 4.2 | 38.9 ± 5.8 |
| UCAUCGGACAUGUAAACCAAA | 43.3 ± 2.5 | 40.3 ± 6.2 | 50.1 ± 5.5 | 65 ± 12 |
| UGUCUGAACAUGUAAACCAAA | 36 ± 1.9 | 18 ± 4.9 | 27.6 ± 3.3 | 38.3 ± 4.2 |

| Sequence | cell viability (H460) [%] | cell viability (M565) [%] | cell viability (HeyA8) [%] | cell viability (3LL) [%] |
| --- | --- | --- | --- | --- |
| UCAAUCAACAUGUAAACCAAA | 56.5 ± 3.2 | 78.5 ± 15 | 82.7 ± 12 | 89.2 ± 17 |
| UGACCGGACAUGUAAACCAAA | 63.5 ± 9.5 | 32.2 ± 5.7 | 64.5 ± 12 | 37.6 ± 4.9 |
| UGAUUAAACAUGUAAACCAAA | 76.7 ± 22 | 54.7 ± 7.3 | 81.8 ± 6.1 | 72.3 ± 16 |
| UGUCCGGACAUGUAAACCAAA | 24 ± 2.7 | 58.9 ± 10 | 46.7 ± 2.1 | 63.3 ± 11 |
| UGACCUAACAUGUAAACCAAA | 60.2 ± 6.1 | 43.1 ± 3.6 | 86.1 ± 6.1 | 59.4 ± 2.6 |
| UAACGCGACAUGUAAACCAAA | 82.8 ± 19 | 86.2 ± 6.5 | 101 ± 18 | 99.5 ± 10 |
| UAUAGACACAUGUAAACCAAA | 67.5 ± 1.4 | 101 ± 14 | 96.5 ± 5.5 | 82.9 ± 7 |
| UUGGUAUACAUGUAAACCAAA | 59.8 ± 4.5 | 89.3 ± 24 | 49.9 ± 5.8 | 96.9 ± 8.6 |
| UGUAGGAACAUGUAAACCAAA | 59.9 ± 8 | 32.9 ± 2.1 | 24.6 ± 5.9 | 82.3 ± 9 |
| UAGUUCCACAUGUAAACCAAA | 16.6 ± 1.7 | 16.8 ± 1.9 | 12.8 ± 0.91 | 6.46 ± 1 |
| UGCCGCCACAUGUAAACCAAA | 34.8 ± 1.3 | 12.3 ± 5 | 17.4 ± 2.3 | 8.14 ± 2.3 |
| UAUAGCAACAUGUAAACCAAA | 81.6 ± 9.3 | 81.6 ± 9.3 | 101 ± 9.7 | 117 ± 16 |
| UAAGAAAACAUGUAAACCAAA | 82.3 ± 20 | 79.3 ± 4.2 | 87.7 ± 11 | 79.3 ± 5 |
| UAUUGCAACAUGUAAACCAAA | 71.1 ± 6.5 | 106 ± 13 | 83.4 ± 5.2 | 105 ± 26 |
| UAAAAGCACAUGUAAACCAAA | 65.8 ± 9.2 | 70.4 ± 18 | 66.4 ± 4 | 91.7 ± 4.8 |
| UAUACCAACAUGUAAACCAAA | 67.4 ± 4.5 | 95.7 ± 13 | 95.6 ± 4.5 | 102 ± 4.5 |
| UGACUGGACAUGUAAACCAAA | 31.6 ± 3.1 | 25.2 ± 2.3 | 24.2 ± 7 | 39.9 ± 2.7 |
| UUAAAGGACAUGUAAACCAAA | 74.3 ± 14 | 46.2 ± 8.8 | 87.1 ± 3.8 | 86.6 ± 6.5 |
| UUUGAAUACAUGUAAACCAAA | 74.8 ± 8 | 92.1 ± 6.8 | 102 ± 9.4 | 79.2 ± 12 |
